Measurements as given in PMC4336329 (PLoS ONE, 2015).
Screen size: about 310,000 compounds; about 2,200 (0.71%) showed an effect of 50% or more. The effect is printed as a negative number. The list shows a part of the results.

Molecular target: human ether-à-go-go-related gene (hERG) potassium channel (human, UniProt Q12809)
Assay: primary screen, population patch clamp on CHO cells stably expressing hERG

Chain of human ether-à-go-go-related gene (hERG) potassium channel (Q12809 whole entry, looked up): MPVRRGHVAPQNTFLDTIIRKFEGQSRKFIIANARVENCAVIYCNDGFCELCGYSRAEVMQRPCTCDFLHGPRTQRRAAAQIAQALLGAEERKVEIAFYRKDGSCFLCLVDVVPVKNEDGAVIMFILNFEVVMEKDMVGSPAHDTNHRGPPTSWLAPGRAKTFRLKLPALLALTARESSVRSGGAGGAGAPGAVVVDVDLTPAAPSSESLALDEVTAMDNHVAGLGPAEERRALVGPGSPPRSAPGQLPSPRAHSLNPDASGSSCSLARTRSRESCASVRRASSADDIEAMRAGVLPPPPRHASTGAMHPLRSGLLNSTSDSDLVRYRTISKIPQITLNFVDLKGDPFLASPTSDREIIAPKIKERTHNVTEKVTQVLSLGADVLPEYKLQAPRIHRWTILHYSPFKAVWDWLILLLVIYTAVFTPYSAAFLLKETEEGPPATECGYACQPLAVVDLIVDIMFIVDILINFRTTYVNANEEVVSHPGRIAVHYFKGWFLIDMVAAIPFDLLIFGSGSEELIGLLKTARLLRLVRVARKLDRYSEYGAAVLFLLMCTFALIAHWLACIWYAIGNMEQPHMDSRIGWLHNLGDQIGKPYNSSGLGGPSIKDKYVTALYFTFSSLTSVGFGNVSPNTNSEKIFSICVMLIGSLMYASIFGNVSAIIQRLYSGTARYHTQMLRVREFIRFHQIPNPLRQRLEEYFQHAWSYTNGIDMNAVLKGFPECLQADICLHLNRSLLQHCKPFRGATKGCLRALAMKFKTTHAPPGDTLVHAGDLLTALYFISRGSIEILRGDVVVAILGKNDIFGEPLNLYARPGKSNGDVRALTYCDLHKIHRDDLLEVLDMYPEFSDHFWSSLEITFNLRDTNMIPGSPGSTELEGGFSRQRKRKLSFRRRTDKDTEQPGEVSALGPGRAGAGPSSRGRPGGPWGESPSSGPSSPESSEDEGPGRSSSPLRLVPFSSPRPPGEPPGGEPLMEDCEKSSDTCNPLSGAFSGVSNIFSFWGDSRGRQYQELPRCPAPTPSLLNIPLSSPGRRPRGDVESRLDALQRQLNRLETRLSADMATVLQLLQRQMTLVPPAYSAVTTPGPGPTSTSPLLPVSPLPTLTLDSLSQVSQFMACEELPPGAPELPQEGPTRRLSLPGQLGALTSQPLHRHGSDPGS

SMILES	hERG current change (%, negative = inhibition) at 1uM
Cc1ccc(NC(=O)CN(C)C(=O)CSc2n[nH]c(N)n2)cc1	3.99%
COc1ccc(OCc2cc(C(=O)O)c(C)o2)cc1	12.3%
CCOC(=O)Cn1c(=NC(=O)CC)sc2c(C)cc(C)cc21	13.1%
C=CCNC(=O)C1CCN(S(=O)(=O)c2ccc(Br)cc2)CC1	-12.5%
CCC1Oc2ccc(C)cc2N(CC(=O)N(Cc2ccc(C)o2)C2CC(C)(C)NC(C)(C)C2)C1=O (centres unmarked)	2.6%
COc1ccc(C[C@H]2CN3C(=NC[C@H]3Cc3ccccc3)N2CCNC(=O)c2ccc(C)c(Br)c2)cc1	-24.7%
CCCN1CCN(C(=O)Nc2cccc(C(F)(F)F)c2)CC1	-6.7%
Cc1cc(C)nc(SCC(=O)c2ccc(O)cc2O)n1	11.3%
CCN(CC)S(=O)(=O)c1ccc(N2CCCCC2)c(NC(=O)/C=C/c2cc(OC)c(OC)c(OC)c2)c1	9.49%
Cc1cccc2cc(C3CC(c4ccco4)=NN3S(C)(=O)=O)c(Cl)nc12 (centres unmarked)	9.7%
CCOc1cc(C2c3c(-c4ccccc4)n[nH]c3C(=O)N2c2ccc(C(=O)O)cc2)ccc1O (centres unmarked)	5.4%
Cc1ccnc(NC(=O)CCC(=O)N(CC(=O)NC2CCCCC2)Cc2ccccc2)c1	12.6%
Cn1nnnc1SCC(=O)Nc1ccccc1Br	5.29%
Cc1csc(=O)n1CC(=O)OC(C)C(=O)Nc1ccc(F)c(F)c1F (centres unmarked)	12.9%
c1cnc(N2CCSCC2)nc1	3.46%
CC(CCc1ccccc1)NC(=O)c1ccc(Br)o1 (centres unmarked)	9.48%
Cn1c(SCC(=O)Nc2cccc(F)c2)nc2c(c1=O)SCC2	8.74%
CN(C)S(=O)(=O)c1cccc(C(=O)Nc2ccc(S(=O)(=O)N3CCCC3)cc2)c1	13.5%
COc1ccc(C(=O)O/N=C(\N)c2ccc(OC)c(OC)c2)cc1	6.77%

SMILES	hERG current change (%, negative = inhibition) at 1uM
Cc1nn(Cc2ccccc2)c(C)c1NC(=O)CSc1n[nH]c(C)c1[N+](=O)[O-]	5.93%
Cc1c(C)c2c(OCC(=O)NCC(O)c3ccccc3)cc3c(c2oc1=O)CCC(C)(C)O3 (centres unmarked)	13.7%
Cc1nn(C)c(Oc2ccc(Cl)cc2)c1C(=O)O	15.2%
CC(C)NC(=O)C(=O)N/N=C/c1ccco1	15.4%
CC(C)NCC1CCc2cc(CO)c([N+](=O)[O-])cc2N1 (centres unmarked)	16.2%
N#Cc1cc(Oc2cccc3cccnc23)c(-n2nnc3ccccc32)cc1C#N	6.89%
O=[N+]([O-])c1ccc(/C=N/Nc2nc(N3CCOCC3)nc(N3CCOCC3)n2)cc1	13.3%
CC1CN(CCOc2ccccc2[N+](=O)[O-])CC(C)O1.O=C(O)C(=O)O (centres unmarked)	7.35%
Cc1ccc(C)c(CN2C(=O)c3ccccc3S(=O)c3ccc(C(=O)N4CCN(c5ccccn5)CC4)cc32)c1 (centres unmarked)	4.96%
COc1cc(C)ccc1OCCOCCOc1ccccc1Br	16.7%
CC(=O)n1cc(N(C(=O)CCl)c2ccccc2)c2ccccc21	16%
O=C(O)CCNc1cc2ccccc2cc1C(=O)O	1.77%
CN(C(=O)CSc1nc2sc3c(c2c(=O)n1C)CCC3)C1CCS(=O)(=O)C1 (centres unmarked)	11.4%
O=c1[nH]c(Nc2ccccc2)cc2cc(Br)ccc12	9.83%
COc1ccc(S(=O)(=O)N2CCCC(C(=O)Nc3cccc(C(C)=O)c3)C2)cc1 (centres unmarked)	4.17%
Cc1c(C)[n+](=O)c2c(n1[O-])C(Br)CCC2Br (centres unmarked)	3.4%
O=C(Nc1ccc(Cl)cc1)Nc1cnccn1	11.6%
COc1ccc(NC(=O)c2ccccc2SC)c(OC)c1	13.8%
Nc1ncnc(N(c2ccccc2)C2CCCCC2)c1[N+](=O)[O-]	8.32%

SMILES	hERG current change (%, negative = inhibition) at 1uM
Cc1[nH]c2ccccc2c1Cc1nnc(SCc2ccccc2)o1	8.04%
CCc1ccc(N2CC(C(=O)OCC(=O)Nc3cc(C)on3)CC2=O)cc1 (centres unmarked)	4.2%
COc1cccc(OC)c1OCCNCC1CSc2ccccc2O1.Cl (centres unmarked)	-10.8%
Cc1ccc(NC(=S)Nc2ccc(F)cc2)cc1C	10.2%
CC1Cc2ccccc2N1C(=O)c1ccc2c(c1)nnn2C (centres unmarked)	8.12%
N#Cc1nc(/C=C/c2ccccc2)oc1NCCCN1CCOCC1	2.31%
Cc1cc(-c2csc(N)n2)c(C)n1-c1ccc(Cl)c(Cl)c1	15.2%
CCc1cccc(NC(=O)CCNS(=O)(=O)c2ccc3c(c2)oc(=O)n3C)c1	7.18%
COC(=O)CN(c1cc(Cl)ccc1OC)S(=O)(=O)c1ccc(C)cc1	3.62%
COc1ccc(/C=N/NC(=O)COc2ccccc2-c2ccccc2)cc1	10.1%
COc1ccc(-c2oc3ccccc3c2C(=O)OCc2ccc([N+](=O)[O-])cc2)cc1	13.4%
Cn1c(=O)c2c(nc(NCCCO)n2Cc2cccc(C(F)(F)F)c2)n(C)c1=O	10.6%
COc1ccccc1N(CC(=O)Nc1ccc(F)c(F)c1)S(C)(=O)=O	15.8%
CCOC(=O)N1CCN(c2ccc(C(=O)c3cccc(F)c3)cc2)CC1	4.15%
O=C(NCc1nnc(SCC(=O)N2CCCC2)o1)c1c(F)cccc1F	6.25%
CCN(CC)C(=O)c1ccc2c(c1)C1C(Cl)C(Sc3ccccc3[N+](=O)[O-])CC1C(C(=O)O)N2 (centres unmarked)	-10.8%
CCOc1nc(NC(C)C)nc(N2CC3CC(C2)c2cccc(=O)n2C3)n1 (centres unmarked)	5.76%
OC(CN1CCN(c2ccc(F)cc2)CC1)c1ccc(Cl)cc1 (centres unmarked)	2.87%
